# Reference: the supplement of paper PMC4466236
# The full ranking holds about 33,000 sequences; the median of “E-score (dimensionless, -0.5 to 0.5)” is about -0.058, and the highest 2% start at about 0.35. The list shows a part of the results.
# Tested on: MvaT
# Test: PBM 8-mer E-score (mean of HK and ME arrays) (E-score (dimensionless, -0.5 to 0.5)); higher = stronger relative binding preference; most listed sequences are background and not binding sites
# Summary of the method: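 Full-length P. aeruginosa MvaT, with glutathione S-transferase fused to its N-terminus (cloned into pTH6838 by isothermal assembly), was tested by protein binding microarray using a previously described protocol. Two universal double-stranded 60-mer arrays (ME and HK) were used, each with a constant 25-mer primer region and a variable 35-mer region covering all 8-mers. The rank-based 8-mer E-score (-0.5 to 0.5) is the mean of the two arrays, parsed with a custom Python script.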
row,Sequence,PBM 8-mer E-score
1,AATCTAGA,0.132
2,GGTGCTCA,-0.128
3,ATCTAACG,0.0131
4,AGAAGCAC,-0.065
5,TGCCACCA,-0.112
6,ACGTTAAG,0.0601
7,ACTGATAG,0.00347
8,AGTAGGAC,-0.0289
9,AGATCAGA,0.0505
10,CGTTCTCC,-0.188
11,ACCTAAGC,-0.191
12,CGGATACC,-0.178
13,GAGTTGCC,0.00911
14,ACAATGCG,0.0092
15,ACAGTGTA,0.155
16,ACCCTTGA,-0.222
17,CCCTCGAG,-0.18
18,ACCTGCAG,-0.0973
19,AACTGTCA,0.0842
20,AGTTGCGA,0.0918
21,CATCTCGC,-0.149
22,AGCTAGTC,-0.187
23,AGATGACG,-0.14
24,AGAGCGAC,-0.23
25,AAAAACGC,0.0923

row,Sequence,PBM 8-mer E-score
1,CCTATGAG,-0.26
2,AAGACGTC,-0.00449
3,AAGATAAT,0.287
4,GCGGTCAA,-0.0904
5,CCGCGGTC,-0.286
6,GCCCTAGC,-0.296
7,CATATTTA,0.371
8,AGTGGGGC,-0.172
9,GAAGTGCA,0.121
10,TCACGTCA,-0.0625
11,TTTGCAAA,0.312
12,GTCTAGCA,-0.19
13,ACGGTAAA,0.212
14,ACTCCAAG,0.025
15,TAAAGTGA,0.202
16,ACTAGTCT,0.0237
17,AATGGAGA,-0.000257
18,AGGCAAAG,-0.000395
19,ATTTGTTG,0.172
20,GACCCTGC,-0.18
21,AGGGATAA,0.112
22,GCCGCCGA,-0.249
23,ATTCACGA,-0.0574
24,CGGTAGGA,-0.0651
25,CGTGCCGA,-0.293

row,Sequence,PBM 8-mer E-score
1,ATCCTACG,-0.133
2,AGGGCGTA,-0.126
3,GCACCGGC,-0.287
4,TACAAGTA,0.305
5,CCGGTCGA,-0.179
6,AAACATAA,0.371
7,TAAACATA,0.312
8,ATCTACAT,0.12
9,GGGTACGA,-0.137
10,CCCACTTC,-0.135
11,ATATCCAG,0.145
12,ATAATCCA,0.321
13,ATAGGGAG,-0.154
14,GTGCCCAA,-0.071
15,GAGTATAC,0.253
16,CAATACGA,0.119
17,ACGGTCTG,-0.101
18,AATCTGAG,0.0998
19,CTTTAAAA,0.287
20,GACTAAGC,-0.0918
21,CAGCTACA,-0.138
22,GCCTTGCC,-0.279
23,TATGACAA,0.13
24,CAATCAGG,0.00322
25,GCCGGCCC,-0.211

row,Sequence,PBM 8-mer E-score
1,GACTGTCC,-0.0796
2,CAAGCTTA,0.0267
3,GGGAAAAC,0.0894
4,CGTTAATA,0.31
5,ATTAAGTA,0.298
6,GGGACAAC,-0.0115
7,CGGTTAGC,-0.0337
8,ACCATTCG,-0.0341
9,CGTAAGTC,0.0103
10,ATTGCAAA,0.16
11,GCACACCC,-0.171
12,CTACGCCA,-0.204
13,CCGAAGTC,-0.167
14,TGCATCCA,-0.0802
15,TCAGGGCA,-0.0132
16,ACTACGCT,0.0474
17,AAACCCCT,-0.209
18,ATTAGAAC,0.135
19,ACATGAGA,0.0687
20,AGCACGCA,-0.193
21,TCTGTTAA,0.148
22,ATGGGCGC,-0.0923
23,GGTAAGCA,-0.0662
24,ACGGGTTG,-0.109
25,GACGGTCC,-0.273

row,Sequence,PBM 8-mer E-score
1,ACAAGTTG,0.0642
2,GATGTTCA,0.0298
3,CCTGCGTC,-0.279
4,AACAAACA,0.27
5,AAATTTAG,0.238
6,GCCAACGA,-0.161
7,CCGGAGCG,-0.209
8,CAACGGGC,-0.176
9,ACGACGAG,-0.0778
10,AAGCTATT,0.22
11,CTGTTATA,0.359
12,AAACGGAG,-0.109
13,CAACTTAG,0.255
14,GATTGTAA,0.109
15,AGACGCGG,-0.254
16,GGGAATGA,-0.115
17,GAGGTGCC,-0.179
18,GCCACTTA,-0.161
19,TACGACTA,-0.049
20,ATCTATTG,0.082
21,CAGCATAC,0.0181
22,CCCCACTA,-0.172
23,CAGAGCTC,-0.193
24,GCGCGACA,-0.0568
25,GCACCAAC,-0.0941

row,Sequence,PBM 8-mer E-score
1,ACGGGCTC,-0.154
2,AGGCACAA,-0.212
3,AGAGATCT,0.0324
4,GAACCGTC,-0.23
5,GAGTTACC,-0.00681
6,ACGGTTCA,0.00356
7,CAAATTGA,0.223
8,AAGCCTCT,-0.328
9,AAGGTGAG,-0.254
10,AAGCTGCA,-0.124
11,TACGAACA,0.145
12,CGGAAGAA,-0.101
13,CTACTGCC,-0.181
14,GCCCTTGA,-0.286
15,CAACCTCA,-0.114
16,ACGCTAGT,-0.0816
17,CGGTGGCC,-0.181
18,AAAAACTG,0.0497
19,CGGCAGGA,-0.277
20,GAGGCTAA,-0.0265
21,CCCGCAAC,-0.00928
22,TAGATGAA,0.187
23,ATCGAACG,-0.051
24,AAATATGA,0.241
25,ATGACGCC,-0.301

row,Sequence,PBM 8-mer E-score
1,ACCTACCT,-0.162
2,GGTGTCGA,-0.173
3,CTGAGGAC,-0.192
4,ACATCTGC,-0.0866
5,GATCGTCC,-0.303
6,ACTACGTC,-0.181
7,CTTGCCCC,-0.16
8,ATATCTTC,0.283
9,GAATGGGA,-0.195
10,CATAATCC,0.0563
11,AGAACAGG,-0.0799
12,TTGTTAAA,0.346
13,GCGCAGTA,-0.0668
14,AAGCACCC,-0.193
15,CACGGTTC,-0.16
16,CCGAATTA,0.191
17,GAGTGTAA,0.232
18,AGGGAACC,-0.296
19,CGATCCTA,-0.185
20,GAGCTCGC,-0.24
21,ACAACGCG,-0.0832
22,AAGGCGGC,-0.157
